Measured values: US7826982B2, “Method of identifying inhibitors using a 3-D structure of RAC-1 GTPASE” (Children's Hospital Medical Center, priority 2005, dated 2010)

Columns and labels:
[1] = target: T1, RhoA binding to PDZ-RhoGEF (Homo sapiens, UniProt P61586); assay: RhoA - PDZ-RhoGEF affinity precipitation; conditions: varying concentrations
T1 construct: made in house; host or cells: PDZ-RhoGEF expressed in Cos-7 cells (lysate used)
Description: Trio and Tiam-1 co-precipitate with GST-Rac1, but not GST or GST-Cdc42.
In FIG. 2A, 0.5 μg of (His)6-tagged TrioN was incubated with GST alone or nucleotide-free, GST-fused Cdc42 or Rac1 (2 μg) in the binding buffer containing different concentrations of NSC23766 and 10 μl suspended glutathione-agarose. After an incubation at 4° C. for 30 minutes, the beads associated (His)6-TrioN were detected by anti-His Western blotting. The blots were quantified by densitometry analysis. The results are representative of three measurements. In FIG. 2B, myc-tagged Tiam1 expressed in Cos-7 cell lysates were incubated with (His)6-Rac1 in the presence of increasing concentrations of NSC23766. The association of Rac1 with Tiam1 was examined by anti-His blot after anti-myc immunoprecipitation. In FIG. 2C, the AU-tagged PDZ-RhoGEF was expressed in Cos-7 lysates and incubated with GST or GST-RhoA in the presence of varying concentrations of NSC23766. The RhoA associated PDZ-RhoGEF was probed with anti-AU antibody after affinity precipitation by glutathione agarose beads. In FIG. 2D, (His)6-Rac1 loaded with GTP γ S was incubated with GST-BcrGAP or GST-PAK1 (PBD) in the presence or absence of 200 μM NSC23766 and the interaction with GSTBcrGAP or GST-PAK1 was probed by anti-His blot after affinity precipitation by glutathione agarose beads.

[2] = test system: PC-3 cells; assay: Matrigel cell invasion assay; conditions: 25 μM, 24 hrs
[3] = test system: L61Rac1 or Tiam1 transfected NIH 3T3 cells; assay: Foci formation and soft-agar growth of transfected NIH 3T3 cells; format: cell-based; conditions: 50 μM (foci, 14 days) or 100 μM (soft agar, 14 days)
Description: (§1) The cells were split in triplicate in 6-well plates at a density of 5×10^4 cells per well. The GTP-bound L61Rac1 and endogenous Rac1 of the L61Rac1-expressing cells were probed by GST-PAK1 pull-down after 12 hour treatment with increasing concentrations of NSC23766. […] In FIG. 5C, GST, L61Rac1, or Tiam1 transfected cells were treated with 50 μM NSC23766 every two days. The foci numbers of the respective cells were quantified 14 days after transfection. […] The number and the morphology of the colonies were examined under a microscope.

[4] = test system: GEF expressing NIH 3T3 cells; assay: Cell growth assay, GEF-transfected NIH 3T3; format: cell-based; conditions: 100 μM; 5% serum
Description: as §1

[5] = test system: PC-3 cells; assay: Anchorage independent growth in soft agar; conditions: for colony forming activity (anchorage independent growth) of PC-3 cells: different doses
[6] = test system: PC-3 cells; assay: PC-3 proliferation, CellTiter 96 AQueous assay; conditions: 5% serum, indicated concentrations
[7] = test system: L61Rac1 expressing NIH 3T3 cells; assay: Cell growth assay, L61Rac1 expressing NIH 3T3; format: cell-based; conditions: 100 μM; 5% serum
Description: as §1

[8] = target: PDZ-RhoGEF-stimulated mantGDP/GTP exchange of RhoA (Homo sapiens, UniProt P61586); assay: In vitro guanine nucleotide exchange assay (mant-GDP), RhoA with PDZ-RhoGEF; format: biochemical; conditions: 200 μM NSC23766
Description: In vitro guanine nucleotide exchange assay. For these, 200 nM Rac1 loaded with mant-GDP is incubated at 25° C. in an exchange buffer containing 100 mM NaCl, 5 mM MgCl2, 50 mM Tris-HCl (pH 7.6), and 0.5 mM GTP in the absence or presence of 200 nM Trio. The mant-GDP fluorescence changes in the course of the exchange reactions are monitored with an excitation wavelength at 360 nm and the emission wavelength at 440 nm by a Cary Ellipse fluorescence spectrometer (Varian, Inc.).
In FIG. 3. […] In FIG. 3A, NSC23766 inhibited TrioN catalyzed GDP/GTP exchange of Rac1 in a dose dependent manner. 200 nM Rac1 loaded with mant-GDP was incubated at 25° C. in an exchange buffer containing 100 mM NaCl, 5 mM MgCl2, 50 mM Tris-HCl (PH 7.6), and 0.5 mM GTP in the absence (top line) or presence of 100 nM TrioN. Increasing concentrations of NSC23766 were included in the exchange buffer as indicated. In FIG. 3B, NSC23766 had no effect on the Intersectin-stimulated GDP/GTP exchange of Cdc42. 200 nM Cdc42 loaded with mant-GDP was incubated in the exchange buffer in the absence (top line) or presence of 100 nM Intersectin with or without 200 μM NSC23766. In FIG. 3C, the exchange reaction of RhoA catalyzed by PDZ-RhoGEF was carried out similarly in the presence or absence of 200 μM NSC23766.

[9] = test system: wild type NIH 3T3 cells; assay: Cell growth assay, wild type NIH 3T3; format: cell-based; conditions: 100 μM; 5% serum
Description: as §1

T1 sequence (P61586 whole entry): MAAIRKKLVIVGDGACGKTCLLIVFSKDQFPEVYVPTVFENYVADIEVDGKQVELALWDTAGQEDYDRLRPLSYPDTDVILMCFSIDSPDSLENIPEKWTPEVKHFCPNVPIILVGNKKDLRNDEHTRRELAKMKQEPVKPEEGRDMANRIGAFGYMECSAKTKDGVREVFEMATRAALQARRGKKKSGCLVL

## CCN(CC)CCCC(C)Nc1nc(C)cc(Nc2ccc3nc(C)cc(N)c3c2)n1 (stereo not drawn) [compound 23766, N6-(2-((4-(diethylamino)-1-methylbutyl)amino)-6-methyl-4-pyrimidinyl)-2-methyl-4,6-quinolinediamine]
[1]
  effect on RhoA binding to PDZ-RhoGEF: does not interfere
[2]
  PC-3 cell invasion: significantly inhibits
[2]; listed as NSC23766
  PC-3 cell invasion: inhibited
[3]
  Rac GEF stimulated cell growth and transformation: specifically inhibited
[4]
  cell growth induced by the Rac specific GEF Trio: capable of inhibiting
  cell growth stimulated by the Cdc42-specific GEF Intersectin: not
  cell growth stimulated by the Rho-specific GEF Lbc: not
  cell growth stimulated by the multiple Rho protein-activating GEF Vav: not
[5]; 25 μM, PC-3 cells
  colony-forming activity remaining: Approximately 10%
[5]; 50 μM, PC-3 cells
  colony-forming activity remaining: ~1%
[5]; PC-3 cells
  size of colonies of treated cells versus untreated: much smaller
[5]
  colony forming activity (anchorage independent growth) of PC-3 cells: efficiently blocks
[5]; listed as NSC23766
  colony forming activity (anchorage independent growth) of PC-3 cells: inhibited
[6]
  proliferation of PC-3 cells: inhibited by compound 23766 in a dose dependent manner
[6]; listed as NSC23766
  proliferation of PC-3 cells: inhibited
[7]
  growth rate of Rac1L61 expressing cells: no effect
[8]
  effect on PDZ-RhoGEF-stimulated mantGDP/GTP exchange of RhoA: little impact
[9]
  growth of wild type NIH 3T3 cells: slow the growth
